Test results as given in US20250114450A1 (AKESO BIOPHARMA, published 2025).

Key:
[1] = target: T1, FcγRIIIa_F158 (UniProt P08637 fragment); assay: BLI (Fortebio Octet), FcγRIIIa_F158 on HIS1K sensor
T1 construct: also called hFcGR3A(F158)-his; not shown: his tag
Description: 5 μg/mL FcγRIIIa_F158 was immobilized on the HIS1K sensor for 120 s. The sensor was equilibrated in a buffer for 60 s, and the binding of the immobilized hFcGR3A(F158)-his on the sensor to the antibodies at concentrations of 31.25-500 nM (serial two-fold dilution) was determined for 60 s. The antibody was dissociated in the buffer for 60 s. The sensor was refreshed 4 times in 10 mM glycine pH 1.5, each for 5 s. The detection temperature was 30° C. and the frequency was 0.3 Hz. The data were analyzed by 1:1 model fitting to obtain affinity constants.

[2] = target: T2, C1q (UniProt P02745; P02746; P02747); assay: BLI (Fortebio Octet), antibody on FAB2G sensor
T2 construct: the three subunits are from general knowledge; also called serum complement C1q; complement C1q
Description: 50 μg/mL antibody was immobilized on the FAB2G sensor at an immobilization height of about 2.0 nm. […] The antigen and antibody were dissociated in the buffer for 60 s. The sensor was refreshed 4 times in 10 mM glycine pH 1.7, each for 5 s. The shaking speed of the sample plate was 1000 rpm, the temperature was 30° C. and the frequency was 0.6 Hz. The data were analyzed by 1:1 model fitting to obtain affinity constants. The data acquisition software was Fortebio Data Acquisition 7.0, and the data analysis software was Fortebio Data Analysis 7.0.

[3] = target: T3, FcγRI (UniProt P12314 16-288, limits assumed); assay: BLI (Fortebio Octet), FcγRI immobilized on HIS1K sensor, antibody 3.12-50 nM, 1:1 fit
T3 construct: construct not described; also called CD64; FcγRIa
Description: 1 μg/mL FcγRIa was immobilized on the HIS1K sensor for 50 s. The sensor was equilibrated in a buffer for 60 s, and the binding of the immobilized CD64 on the sensor to the antibodies at concentrations of 3.12-50 nM (two-fold dilution) was determined for 120 s. The antibody was dissociated in the buffer for 120 s. The sensor was refreshed 4 times in 10 mM glycine pH 1.5, each for 5 s. The detection temperature was 30° C. and the frequency was 0.3 Hz. The data were analyzed by 1:1 model fitting to obtain affinity constants.

Sequence of FcγRI (P12314 16-288 limits assumed): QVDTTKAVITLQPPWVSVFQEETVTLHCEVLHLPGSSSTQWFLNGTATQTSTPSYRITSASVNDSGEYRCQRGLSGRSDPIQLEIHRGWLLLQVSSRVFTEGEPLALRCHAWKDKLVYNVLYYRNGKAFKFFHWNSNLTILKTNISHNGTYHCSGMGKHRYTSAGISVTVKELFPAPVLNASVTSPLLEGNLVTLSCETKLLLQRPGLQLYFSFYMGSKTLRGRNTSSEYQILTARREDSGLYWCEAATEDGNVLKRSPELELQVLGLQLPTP
Sequence of FcγRIIIa_F158 (P08637 17-208 limits assumed): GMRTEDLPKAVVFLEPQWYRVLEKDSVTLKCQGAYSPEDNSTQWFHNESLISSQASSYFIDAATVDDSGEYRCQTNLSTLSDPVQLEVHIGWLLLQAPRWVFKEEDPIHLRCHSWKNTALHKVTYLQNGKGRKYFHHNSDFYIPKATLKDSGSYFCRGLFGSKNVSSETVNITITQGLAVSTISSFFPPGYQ
Sequence of C1q (P02745 23-245 limits assumed, chain 1 of 3): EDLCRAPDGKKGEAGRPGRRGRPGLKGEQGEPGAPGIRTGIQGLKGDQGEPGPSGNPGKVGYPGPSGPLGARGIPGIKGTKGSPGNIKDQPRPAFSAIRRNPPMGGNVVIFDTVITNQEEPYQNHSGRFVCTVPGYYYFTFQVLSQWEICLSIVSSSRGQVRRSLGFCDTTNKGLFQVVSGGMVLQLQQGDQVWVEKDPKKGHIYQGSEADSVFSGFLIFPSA
Sequence of C1q (P02746 28-253 limits assumed, chain 2 of 3, further chain): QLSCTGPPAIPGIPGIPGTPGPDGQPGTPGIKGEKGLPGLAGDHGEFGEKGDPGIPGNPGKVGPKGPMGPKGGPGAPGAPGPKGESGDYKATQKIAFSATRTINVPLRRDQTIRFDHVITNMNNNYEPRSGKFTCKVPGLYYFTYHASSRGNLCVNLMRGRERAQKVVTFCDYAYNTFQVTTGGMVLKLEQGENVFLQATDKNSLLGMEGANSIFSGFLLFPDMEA
Sequence of C1q (P02747 29-245 limits assumed, chain 3 of 3, further chain): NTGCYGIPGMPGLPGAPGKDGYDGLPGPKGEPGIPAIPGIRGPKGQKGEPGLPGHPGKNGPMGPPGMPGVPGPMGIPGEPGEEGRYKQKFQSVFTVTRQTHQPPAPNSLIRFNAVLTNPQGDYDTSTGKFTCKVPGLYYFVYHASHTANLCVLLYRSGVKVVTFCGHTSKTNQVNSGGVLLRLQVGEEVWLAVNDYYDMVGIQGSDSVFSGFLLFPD

binding result [2]: no binding (tested: C1q 0.625-10 nM)
Kd [3]: 8.52 nM
B1: VP101(hG4WT) (bispecific antibody, human IgG4 S228P, kappa)
heavy: EVQLVESGGGLVQPGGSLRLSCAASGYTFTNYGMNWVRQAPGKGLEWVGWINTYTGEPTYAADFKRRFTFSLDTSKSTAYLQMNSLRAEDTAVYYCAKYPHYYGSSHWYFDVWGQGTLVTVSSASTKGPSVFPLAPCSRSTSESTAALGCLVKDYFPEPVTVSWNSGALTSGVHTFPAVLQSSGLYSLSSVVTVPSSSLGTKTYTCNVDHKPSNTKVDKRV[sequence of human IgG4 Fc with S228P (EU numbers) omitted]GGGGSGGGGSGGGGSGGGGSEVQLVESGGGLVQPGGSLRLSCAASGFAFSSYDMSWVRQAPGKGLDWVATISGGGRYTYYPDSVKGRFTISRDNSKNNLYLQMNSLRAEDTALYYCANRYGEAWFAYWGQGTLVTVSSGGGGSGGGGSGGGGSGGGGSDIQMTQSPSSMSASVGDRVTFTCRASQDINTYLSWFQQKPGKSPKTLIYRANRLVSGVPSRFSGSGSGQDYTLTISSLQPEDMATYYCLQYDEFPLTFGAGTKLELKR
light: DIQMTQSPSSLSASVGDRVTITCSASQDISNYLNWYQQKPGKAPKVLIYFTSSLHSGVPSRFSGSGSGTDFTLTISSLQPEDFATYYCQQYSTVPWTFGQGTKVEIKRTVAAPSVFIFPPSDEQLKSGTASVVCLLNNFYPREAKVQWKVDNALQSGNSQESVTEQDSKDSTYSLSSTLTLSKADYEKHKVYACEVTHQGLSSPVTKSFNRGEC
notes: IgG-scFv (Morrison form), Ig gamma-4 constant region (P01861.1 as stated); also called VP101(G4M)
binding result [1]: no binding (tested: antibody 31.25-500 nM)
